Data taken from PubChem BioAssay AID720707 (National Center for Advancing Translational Sciences (NCATS), 2013).
The whole screen tested about 360,000 compounds, of which about 270 (0.075%) were called active. The inconclusive results got no clear call from the source; some entries with a clear call stand among them for comparison. Calls follow the shape of the dose curve; as a rule, active = well fitted activation curve with a large enough effect; inconclusive = small, poorly fitted or top-dose-only effect; inactive = no such curve, though single readings can be large or run the other way. Potencies of inconclusive entries are left out as doubtful fits.

target: Rap guanine nucleotide exchange factor 3 (Homo sapiens) (UniProt O95398); assay: qHTS for Agonist of cAMP-regulated guanine nucleotide exchange factor 3 (EPAC1): primary screen; conditions: biochemical assay; series mostly up to 154 µM; also: nearly all actives have a fitted effect of over 60% in size
UniProt O95398, sequence (O95398 whole entry, looked up): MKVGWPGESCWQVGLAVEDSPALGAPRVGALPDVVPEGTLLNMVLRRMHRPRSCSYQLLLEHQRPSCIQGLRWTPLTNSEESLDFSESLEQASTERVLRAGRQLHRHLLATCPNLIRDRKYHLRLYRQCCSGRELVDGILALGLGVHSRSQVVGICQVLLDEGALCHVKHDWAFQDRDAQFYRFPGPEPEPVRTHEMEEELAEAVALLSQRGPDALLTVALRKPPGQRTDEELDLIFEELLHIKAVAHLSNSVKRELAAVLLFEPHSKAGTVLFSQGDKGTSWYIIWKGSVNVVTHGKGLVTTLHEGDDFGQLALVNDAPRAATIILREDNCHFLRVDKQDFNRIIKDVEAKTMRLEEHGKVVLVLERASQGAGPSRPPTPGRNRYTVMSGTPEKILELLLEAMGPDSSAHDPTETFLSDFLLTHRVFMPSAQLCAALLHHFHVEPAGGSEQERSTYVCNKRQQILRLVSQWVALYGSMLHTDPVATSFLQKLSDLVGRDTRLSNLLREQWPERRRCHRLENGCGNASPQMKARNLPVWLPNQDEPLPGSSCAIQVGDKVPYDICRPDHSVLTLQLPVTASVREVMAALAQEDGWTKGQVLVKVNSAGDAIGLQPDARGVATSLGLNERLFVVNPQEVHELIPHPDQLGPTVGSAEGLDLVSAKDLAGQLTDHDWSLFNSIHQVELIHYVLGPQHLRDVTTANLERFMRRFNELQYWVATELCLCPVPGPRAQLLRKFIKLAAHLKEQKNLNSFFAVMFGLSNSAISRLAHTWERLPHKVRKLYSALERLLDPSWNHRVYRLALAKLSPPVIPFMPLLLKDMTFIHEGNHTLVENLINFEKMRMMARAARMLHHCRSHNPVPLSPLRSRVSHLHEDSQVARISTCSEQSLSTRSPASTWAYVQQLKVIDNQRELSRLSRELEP
Method in brief: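 Nucleotide exchange by EPAC1 (100 nM) on Rap1B–BODIPY-GDP (250 nM) in the presence of 50 uM GDP is tracked fluorescently at 480/540 nm over 30 min. Signals are normalized to a 6.5 mM cAMP control.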
Potency is read from the fitted curve at half-maximal effect; tags tell the direction and shape of the fitted curve.

Question: `N#CC1(NC(=O)COC(=O)c2nc(Cl)c(Cl)c(N)c2Cl)CCCCC1` was tested. Which Potency did it give?
Answer: Its Potency is inconclusive [activator, single point].

Question: Which Potency does the source give for `Cc1ccc(SCC2(O)CCN(S(=O)(=O)c3ccc(Cl)cc3)CC2)cc1` here?
Answer: The Potency was inconclusive [activator, partial curve].

Question: With `CCCCn1c(=O)[nH]c2nc3cc(N)ccc3nc2c1=O` as the compound, how does the Potency read?
Answer: Its Potency is active: 100 µM.

Question: How did the Potency turn out when `Cc1ccc(C)c(NC(=O)COC(=O)COc2cccc3c2OC(C)(C)C3)c1` was run?
Answer: The Potency was inconclusive [activator, partial curve].

Question: For `COc1ccc(NC(=O)COc2ccccc2C)cc1S(=O)(=O)N1CCCCC1`, which Potency is on record?
Answer: The Potency was inconclusive [activator, full curve, poor fit].

Question: Which Potency does the source give for `COc1ccc(S(=O)(=O)N2CCN(C(=O)c3ccco3)CC2)c(C)c1C` here?
Answer: The Potency was “inactive”.

Question: Which Potency does the source give for `COc1ccc(Cl)cc1NC(=O)CN(C)C(C)C(=O)NC(=O)NC1CCCCC1` (stereo not drawn) here?
Answer: Its Potency is inconclusive [activator, single point].

Question: With `Cc1ccc2nc(-c3ccccc3)cc(C(=O)N3CC(C)OC(C)C3)c2c1` (stereo not drawn) as the compound, how does the Potency read?
Answer: The Potency was inconclusive [activator, partial curve, poor fit].

Question: Which Potency does the source give for `O=C(Nc1c(-c2ccccc2)[nH][nH]c1=O)c1ccccc1` here?
Answer: Its Potency is inconclusive [activator, partial curve].

Question: Which Potency does the source give for `O=C(N/N=C/c1ccc(OC(=O)c2ccco2)cc1)c1ccc[n+]([O-])c1` here?
Answer: Its Potency is “inactive”.

Question: Which Potency does the source give for `[O-]/[N+](=C/c1cccnc1)c1ccc(Br)cc1` here?
Answer: Its Potency is “inactive”.

Question: Which Potency does the source give for `CC(C)N1CCc2c(sc(NC(=O)c3ccc(C(=O)c4ccccc4)cc3)c2C(N)=O)C1` here?
Answer: Its Potency is inconclusive [activator, partial curve].

Question: Which Potency does the source give for `CC(=O)Nc1sc(/C(C#N)=C\c2cccc(Cl)c2)nc1-c1ccc(C)cc1` here?
Answer: The Potency was inconclusive [activator, single point].

Question: With `COc1cc(C(=O)Nc2nc(-c3cccs3)cs2)cc(OC)c1OC` as the compound, how does the Potency read?
Answer: Its Potency is inconclusive [activator, partial curve].

Question: For `O=C(CSc1nnc(-c2cccnc2)o1)Nc1nccs1`, which Potency is on record?
Answer: Its Potency is inconclusive [activator, full curve, poor fit].

Question: With `Cc1c(CCC(=O)O)c(=O)oc2c(C)c3occ(-c4ccc(Cl)cc4)c3cc12` as the compound, how does the Potency read?
Answer: Its Potency is inconclusive [activator, full curve].

Question: For `O=C1/C(=C/c2ccco2)Oc2c1ccc(O)c2CN1CCCCC1`, which Potency is on record?
Answer: The Potency was inconclusive [activator, partial curve].

Question: With `CCN(CC)c1ccc(/C=N/OCC(=O)Nc2cccc(C)c2)cc1` as the compound, how does the Potency read?
Answer: The Potency was inconclusive [activator, partial curve].

Question: With `O=C1C=CC(c2ccccc2)(c2ccccc2)CC1` as the compound, how does the Potency read?
Answer: Its Potency is “inactive”.

Question: For `COc1cc(C(C#N)N2CCOCC2)ccc1O` (stereo not drawn), which Potency is on record?
Answer: The Potency was “inactive”.

Question: With `CCCCS(=O)(=O)/C=C\C1C2C=CC(C2)C1S(=O)(=O)CCCC` (stereo not drawn) as the compound, how does the Potency read?
Answer: The Potency was “inactive”.

Question: With `CCN1C[C@@H]2[C@@H]3C(=O)N(C)C(=O)[C@@H]3[C@](C)(C1=O)N2C(=O)c1ccc(Cl)cc1` as the compound, how does the Potency read?
Answer: The Potency was “inactive”.

Question: With `Cc1ccc(N(CC(O)CON=C2c3ccccc3-c3ccccc32)S(C)(=O)=O)cc1` (stereo not drawn) as the compound, how does the Potency read?
Answer: Its Potency is inconclusive [activator, single point].

Question: With `Cc1ccc(S(=O)(=O)N(C)CC(=O)NCC(c2ccco2)N(C)C)cc1` (stereo not drawn) as the compound, how does the Potency read?
Answer: The Potency was “inactive”.

Question: For `CCCN(CC(=O)Nc1ccccc1C)C(=O)C1CCN(c2ncnc3sc(C)c(C)c23)CC1`, which Potency is on record?
Answer: The Potency was inconclusive [activator, partial curve, poor fit].

Question: `CC1C/C(=C/c2cccn2C)C(=O)/C(=C/c2cccn2C)C1` (stereo not drawn) was tested. Which Potency did it give?
Answer: The Potency was inconclusive [activator, single point].

Question: How did the Potency turn out when `O=C1NC2c3c(I)sc(I)c3C(=O)C2O1` (stereo not drawn) was run?
Answer: The Potency was inconclusive [activator, partial curve].

Question: For `CN1C(=O)/C(=C/C=C2/CCCN2C)N(C)C1=S`, which Potency is on record?
Answer: The Potency was “inactive”.

Question: With `OCC1CSC(=S)N1Cc1ccccc1` (stereo not drawn) as the compound, how does the Potency read?
Answer: Its Potency is “inactive”.

Question: Which Potency does the source give for `O=C(O)Cn1c(O)c(C2=c3ccccc3=NC2=O)sc1=O` here?
Answer: The Potency was inconclusive [activator, partial curve].

Question: With `Nc1cc(Cl)ccc1Oc1ccc2ccccc2c1` as the compound, how does the Potency read?
Answer: The Potency was inconclusive [activator, partial curve].

Question: For `Cn1c(-c2cccc(Br)c2)cnc1NCc1ccccc1O`, which Potency is on record?
Answer: Its Potency is “inactive”.

Question: `COc1ccc(NC(=O)C2=NN(c3ccccc3)C(=O)CC2)cn1` was tested. Which Potency did it give?
Answer: The Potency was inconclusive [activator, single point].

Question: With `Cc1ccc(-n2c(C)cc(C3N=C(N)Nc4nc5ccccc5n43)c2C)c(C)c1` (stereo not drawn) as the compound, how does the Potency read?
Answer: Its Potency is inconclusive [activator, partial curve].

Question: How did the Potency turn out when `COc1cccc(CN2CC(C(=O)N3CCN(c4ccc(Cl)cc4)CC3)CCC2=O)c1` (stereo not drawn) was run?
Answer: The Potency was inconclusive [activator, single point].

Question: With `N#CC1=C2SCN(Cc3ccco3)CN2C(=O)CC1c1ccccc1F` (stereo not drawn) as the compound, how does the Potency read?
Answer: Its Potency is “inactive”.

Question: How did the Potency turn out when `CSCCC(NC(=O)c1ccco1)C(=O)OCC(=O)N(Cc1ccccc1)C(C)(C)C` (stereo not drawn) was run?
Answer: Its Potency is inconclusive [activator, partial curve].

Question: With `CN(C)c1ccc2c(c1)OC(N)=C(C#N)C2c1cccc(F)c1` (stereo not drawn) as the compound, how does the Potency read?
Answer: The Potency was inconclusive [activator, partial curve, poor fit].

Question: `O=C(NCc1cccnc1)c1cc(Sc2cccc(Cl)c2)nc2ccccc12` was tested. Which Potency did it give?
Answer: Its Potency is inconclusive [activator, partial curve].

Question: `Cc1ccccc1N1CCN(S(=O)(=O)c2ccccc2)CC1` was tested. Which Potency did it give?
Answer: Its Potency is inconclusive [activator, single point].

Question: How did the Potency turn out when `COc1ccc(OC)c(NC(=O)C2CCN(S(=O)(=O)c3ccc4c(c3)OCCO4)CC2)c1` was run?
Answer: The Potency was inconclusive [activator, full curve].

Question: How did the Potency turn out when `CC[n+]1ccc(/C=C/c2c[nH]c3ccccc23)cc1` was run?
Answer: Its Potency is inconclusive [activator, partial curve].

Question: How did the Potency turn out when `CCOC(=O)/C(=C\C=C1/Sc2cc(OCC)c(OCC)cc2N1CC)C(C)=O` was run?
Answer: Its Potency is inconclusive [activator, full curve, poor fit].

Question: How did the Potency turn out when `S=C(NCCc1ccccc1)Nc1cccc2cnccc12` was run?
Answer: Its Potency is “inactive”.

Question: For `CCCCn1c(N)c(N(CCC(C)C)C(=O)C2CC(=O)N(c3ccc4c(c3)OCCO4)C2)c(=O)[nH]c1=O` (stereo not drawn), which Potency is on record?
Answer: The Potency was “inactive”.

Question: How did the Potency turn out when `OC[C@H]1O[C@H](OCCc2ccc(O)cc2)[C@H](O)[C@@H](O)[C@@H]1O` was run?
Answer: Its Potency is inconclusive [activator, single point].

Question: How did the Potency turn out when `COc1ccc(Cl)cc1NC(=O)CN(C)C(=O)c1cc(-c2ccncc2)nc2ccccc12` was run?
Answer: The Potency was inconclusive [activator, single point].

Question: `Cc1nc2ccccc2n2c(O)c(CC(=O)O)cc12` was tested. Which Potency did it give?
Answer: Its Potency is inconclusive [activator, single point].

Question: With `O=C1C=C(NNC(=O)c2cccnc2)CC(c2ccco2)C1` (stereo not drawn) as the compound, how does the Potency read?
Answer: The Potency was inconclusive [activator, partial curve].

Question: `CCN1CCN(c2ccc(S(=O)(=O)N3CCCCC3)cc2NC(=O)C(C)Oc2ccc(F)cc2)CC1` (stereo not drawn) was tested. Which Potency did it give?
Answer: The Potency was inconclusive [activator, single point].

Question: For `CCN(CC)C(=O)c1ccc(/C=C/c2c[nH]c3ccccc23)[n+](C)c1`, which Potency is on record?
Answer: The Potency was inconclusive [activator, single point].

Question: Which Potency does the source give for `COc1ccccc1C(=O)NCC(=O)OCC(=O)c1ccc(Cl)s1` here?
Answer: Its Potency is inconclusive [activator, single point].

Question: For `Cc1cccc(C)c1NC(=O)C1(C)CN(S(C)(=O)=O)CC(=O)N1CC(F)(F)F` (stereo not drawn), which Potency is on record?
Answer: The Potency was inconclusive [activator, single point].

Question: With `CSc1nnc(NC(=O)c2nc(S(=O)(=O)Cc3cccc(C)c3)ncc2Cl)s1` as the compound, how does the Potency read?
Answer: The Potency was “inactive”.

Question: How did the Potency turn out when `CCOC(=O)CC(=O)CSc1nc2ccc(C)cc2cc1C#N` was run?
Answer: Its Potency is inconclusive [activator, partial curve].

Question: How did the Potency turn out when `Cc1ccccc1NC(=O)C1C2CCCCC21` (stereo not drawn) was run?
Answer: Its Potency is “inactive”.

Question: With `COc1ccccc1NS(=O)(=O)c1cccc(C(=O)NNC(=O)c2ccc(O)c(Cl)c2)c1` as the compound, how does the Potency read?
Answer: Its Potency is inconclusive [activator, single point].

Question: With `O=C(Cn1cc(C(F)(F)F)cc(Cl)c1=O)NCCc1ccc(Cl)cc1Cl` as the compound, how does the Potency read?
Answer: Its Potency is “inactive”.

Question: For `CCOC(=O)/C(C#N)=C/c1ccc(N2CCCCC2)cc1`, which Potency is on record?
Answer: Its Potency is inconclusive [activator, partial curve].

Question: Which Potency does the source give for `CCOc1cc(/C=C/C(=O)OCC(=O)NCc2ccco2)cc(Cl)c1OC` here?
Answer: The Potency was inconclusive [activator, single point].

Question: How did the Potency turn out when `COc1ccc(S(=O)(=O)NCCSCc2cccc(C)c2)cc1Br` was run?
Answer: Its Potency is inconclusive [activator, partial curve].

Question: `N#C/C(=C/c1ccc(N2CCOCC2)o1)C(=O)Nc1ccccc1` was tested. Which Potency did it give?
Answer: The Potency was active: 100 µM.

Question: For `O=C(c1ccc(Cl)c(S(=O)(=O)N2CCCCC2)c1)N1CCN(Cc2ccccc2)CC1`, which Potency is on record?
Answer: The Potency was inconclusive [activator, single point].

Question: With `O=S(=O)(Nc1ccc2oc(-c3ccccc3)nc2c1)c1ccccc1` as the compound, how does the Potency read?
Answer: The Potency was inconclusive [activator, partial curve].

Question: `Nc1nc(-c2cccs2)c(CC(=O)O)s1` was tested. Which Potency did it give?
Answer: Its Potency is “inactive”.

Question: Which Potency does the source give for `COc1ccc(/C=C/C(=O)c2ccncc2)c2ccccc12` here?
Answer: The Potency was inconclusive [activator, full curve].

Question: `CN1/C(=C\C=C(/C#N)C(=O)Nc2ccccc2F)C(C)(C)c2ccccc21` was tested. Which Potency did it give?
Answer: Its Potency is inconclusive [activator, partial curve, poor fit].

Question: How did the Potency turn out when `CCN1C(=O)C(=CC=CN(C)c2ccccc2)SC1=S` was run?
Answer: The Potency was inconclusive [activator, partial curve, poor fit].
